Paper PMC4336329 (PLoS ONE, 2015)
Screen size: about 310,000 compounds; about 2,200 (0.71%) showed an effect of 50% or more. The effect is printed as a negative number. Some of the results follow.

Biological target: human ether-à-go-go-related gene (hERG) potassium channel (human, UniProt Q12809)
Experiment: primary screen, population patch clamp on CHO cells stably expressing hERG

Chain of human ether-à-go-go-related gene (hERG) potassium channel (Q12809 whole entry, looked up): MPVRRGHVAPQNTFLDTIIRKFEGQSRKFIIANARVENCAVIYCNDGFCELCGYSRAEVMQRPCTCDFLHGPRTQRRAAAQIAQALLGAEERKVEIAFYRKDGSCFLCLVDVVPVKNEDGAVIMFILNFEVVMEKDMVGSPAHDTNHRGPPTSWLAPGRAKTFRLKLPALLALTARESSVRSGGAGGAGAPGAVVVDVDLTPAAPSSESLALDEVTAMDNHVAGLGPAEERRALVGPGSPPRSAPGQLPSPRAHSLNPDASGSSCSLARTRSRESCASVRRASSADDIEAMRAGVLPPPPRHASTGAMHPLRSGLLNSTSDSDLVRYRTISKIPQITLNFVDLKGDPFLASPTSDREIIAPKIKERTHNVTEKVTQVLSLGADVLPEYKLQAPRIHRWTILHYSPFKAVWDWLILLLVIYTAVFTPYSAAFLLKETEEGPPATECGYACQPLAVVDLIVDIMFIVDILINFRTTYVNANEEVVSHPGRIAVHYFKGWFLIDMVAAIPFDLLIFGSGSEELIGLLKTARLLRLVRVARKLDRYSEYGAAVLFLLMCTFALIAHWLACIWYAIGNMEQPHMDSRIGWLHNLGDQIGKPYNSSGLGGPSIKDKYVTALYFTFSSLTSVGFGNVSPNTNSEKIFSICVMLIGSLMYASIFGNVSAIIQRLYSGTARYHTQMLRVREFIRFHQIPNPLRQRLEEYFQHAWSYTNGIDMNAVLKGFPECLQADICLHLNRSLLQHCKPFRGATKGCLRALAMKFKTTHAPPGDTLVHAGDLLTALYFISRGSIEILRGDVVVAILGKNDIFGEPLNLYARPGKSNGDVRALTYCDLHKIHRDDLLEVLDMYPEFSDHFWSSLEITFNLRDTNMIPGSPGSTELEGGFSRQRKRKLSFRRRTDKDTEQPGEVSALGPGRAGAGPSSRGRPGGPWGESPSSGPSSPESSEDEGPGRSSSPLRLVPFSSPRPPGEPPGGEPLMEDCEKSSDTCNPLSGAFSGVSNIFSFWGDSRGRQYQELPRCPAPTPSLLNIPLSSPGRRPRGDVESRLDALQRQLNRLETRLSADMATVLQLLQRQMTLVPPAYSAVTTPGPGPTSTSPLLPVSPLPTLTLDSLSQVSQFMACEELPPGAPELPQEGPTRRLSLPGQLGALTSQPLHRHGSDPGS

Compared with `COc1ccccc1/C=C/C(=O)OCc1nc2ccccc2c(=O)[nH]1`, `COc1ccccc1-c1nc(-c2cccc(C)c2)no1` is lower in “hERG current change (%, negative = inhibition) at 1uM” value: 16.1% for the first, 4.46% for the second.

Compared with `CCOC(=O)c1cccc(NC(=O)CSc2nnc(-c3ccncc3)n2CCCOC)c1`, `CCOC(=O)c1ccc(N=c2sc(C(=O)OC)cc(=O)n2CCCN2CCOCC2)cc1` is higher in “hERG current change (%, negative = inhibition) at 1uM” value: -22.9% for the first, 5.86% for the second.

Going from `O=c1c(-c2ccco2)[n+]([O-])c2ccccc2n1OCc1ccccc1F` to `O=C(CSc1nnc2sc3ccccc3n12)c1ccco1`, the “hERG current change (%, negative = inhibition) at 1uM” value falls from 10.6% to 1.81%.

Compared with `Cc1[nH]c(=O)[nH]c(=O)c1CSc1nnc([C@@H](NC(=O)OC(C)(C)C)C(C)C)o1`, `COc1ccc(N(CC(=O)Nc2cccc(C(F)(F)F)c2)S(=O)(=O)c2c(C)[nH]c(=O)[nH]c2=O)cc1` is lower in “hERG current change (%, negative = inhibition) at 1uM” value: 10.9% for the first, 6.76% for the second.

Going from `COc1ccc(N(CC(O)Cn2c3ccccc3c3ccccc32)S(=O)(=O)c2ccccc2)cc1` (centres unmarked) to `Cc1cc(NC(=O)c2ccc(N(C)S(=O)(=O)c3ccccc3)cc2)no1`, the “hERG current change (%, negative = inhibition) at 1uM” value falls from 11.6% to -5.75%.

Going from `O=C(CSc1nnc(-c2ccco2)o1)Nc1cccc([N+](=O)[O-])c1` to `O=[N+]([O-])c1ccc(Sc2nccn2Cc2ccccc2)c([N+](=O)[O-])c1`, the “hERG current change (%, negative = inhibition) at 1uM” value falls from 11.5% to -4.2%.

First: Cc1ccc(S(=O)(=O)CCSc2n[nH]c(=O)n2-c2ccc3c(c2)OCCO3)cc1
Second: O=C(Nc1ccc(S(=O)(=O)N2CCOCC2)cc1)c1cc(-c2cc(Cl)ccc2O)n[nH]1
The “hERG current change (%, negative = inhibition) at 1uM” value of the first is higher: 11.5% for the first, 4.43% for the second.

Compared with `CCOC(=O)N1CCC(N2CCN(C3CCCC3)C(CCO)C2)CC1` (centres unmarked), `Cc1ccnc(NC(=O)CCC(=O)N(CC(=O)NC2CCCCC2)C2CCCC2)c1` is higher in “hERG current change (%, negative = inhibition) at 1uM” value: 1.4% for the first, 10.2% for the second.

First: CCc1cccc(NC(=O)Nc2ccc3c(c2)OCO3)c1
Second: O=C(O)c1cccc(N/N=C/c2ccc(F)c(F)c2)c1
The “hERG current change (%, negative = inhibition) at 1uM” value of the first is lower: 6.95% for the first, 7.69% for the second.

Compared with `COc1ccc(NC(=O)C2C3CCC(C3)C2C(=O)O)cc1OC` (centres unmarked), `COc1ccc(NC(=O)C(OC(=O)c2cnc(C)cn2)c2ccccc2)cc1Cl` (centres unmarked) is lower in “hERG current change (%, negative = inhibition) at 1uM” value: 19.4% for the first, 2.5% for the second.

Compared with `CCC(CC)c1nnc(NC(=O)C2CSC3(C)CCC(=O)N23)s1` (centres unmarked), `CCOC(=O)c1c(/N=C/C2=C(O)CC(C)(C)CC2=O)sc(C(C)=O)c1C` is lower in “hERG current change (%, negative = inhibition) at 1uM” value: 5.98% for the first, 0.934% for the second.

Going from `Cc1ccc(F)cc1NC(=O)CSc1nc(Nc2ccccc2)nc(N2CCOCC2)n1` to `COc1ccccc1OCCC(=O)Nc1cccc(S(=O)(=O)N2CCOCC2)c1`, the “hERG current change (%, negative = inhibition) at 1uM” value rises from -4.37% to 11.7%.

Going from `Fc1ccc(C2=CC(c3ccco3)n3ncnc3N2)cc1` (centres unmarked) to `Cc1ccnn1CC(=O)N/N=C/c1cn[nH]c1-c1ccc(F)cc1`, the “hERG current change (%, negative = inhibition) at 1uM” value falls from 9.38% to 8.69%.

Compared with `CCCn1c(N)c(N(CCOC)C(=O)c2ccc(-c3ccc(Cl)cc3)o2)c(=O)[nH]c1=O`, `CCC(=Nc1ccc2c(c1)CCC2)c1c(O)n(-c2ccc(OC)cc2)c(=O)[nH]c1=O` is higher in “hERG current change (%, negative = inhibition) at 1uM” value: 8.21% for the first, 8.84% for the second.

Going from `O=C(c1cccs1)N(C(=O)c1cccs1)c1ccccn1` to `Cc1ccc(C(=O)O)cc1NC(=O)c1cccs1`, the “hERG current change (%, negative = inhibition) at 1uM” value rises from 12.6% to 23.2%.

First: N#CC(c1ccccc1)c1cccc(Cl)n1 (centres unmarked)
Second: CN(/N=C/Cc1nnnn1-c1ccc(Cl)cc1)c1ccccc1
The “hERG current change (%, negative = inhibition) at 1uM” value of the first is higher: 11.1% for the first, 10.5% for the second.

Compared with `COc1ccc2nc(/N=C\N(C)C)sc2c1`, `Clc1ccc(OCc2cnc(Cl)s2)cc1` is higher in “hERG current change (%, negative = inhibition) at 1uM” value: -9.29% for the first, 8.98% for the second.

Compared with `CCN(C(=O)Cn1c(=O)n(-c2cc(OC)c(OC)c(OC)c2)c(=O)c2ccccc21)c1cccc(C)c1`, `COc1ccc2ccccc2c1CNCc1ccc(C)cc1.O=C(O)C(=O)O` is lower in “hERG current change (%, negative = inhibition) at 1uM” value: 7.47% for the first, -18% for the second.

Going from `COC(=O)C1=C(c2ccc(S(C)(=O)=O)cc2)C[C@@H]2CC[C@H]1N2C(=O)NC1CC1` to `CC[C@H](C)[C@H](NS(=O)(=O)c1ccc(C)cc1)C(=O)N1CCC(C(=O)N[C@H](C(=O)O)C(C)C)CC1`, the “hERG current change (%, negative = inhibition) at 1uM” value falls from 17.4% to -13.6%.

First: O=C(Nc1ccc(N2CCN(C(=O)c3ccccc3)CC2)c(Cl)c1)c1ccco1
Second: CCCc1cc(C(=O)N2CCN(c3ccccc3C)CC2)cs1
The “hERG current change (%, negative = inhibition) at 1uM” value of the first is lower: -4.71% for the first, -3.95% for the second.

First: Cc1ccc(-n2cc(CNC(C)Cc3cnccn3)c(-c3cccc(C)c3)n2)cc1 (centres unmarked)
Second: Cc1ccc(-c2nn(-c3ccccc3)cc2C(=O)Nc2cccc(S(=O)(=O)N3CCOCC3)c2)cc1
The “hERG current change (%, negative = inhibition) at 1uM” value of the first is lower: -33% for the first, 5.13% for the second.

Compared with `CCOC(=O)/C(=N\Nc1cc(Cl)ccc1Cl)N1CCN(CC)CC1`, `CN(Cc1ccc(Cl)cc1Cl)C(=O)CNC(=O)c1ccco1` is lower in “hERG current change (%, negative = inhibition) at 1uM” value: 14% for the first, -3.38% for the second.

Compared with `CCOC(=O)c1cnn(-c2ncnc3c2cnn3C)c1N`, `Cc1ccc(-n2ncc3c2CCCC3NC(=O)c2csnn2)cc1C` (centres unmarked) is lower in “hERG current change (%, negative = inhibition) at 1uM” value: 7.44% for the first, 2.61% for the second.

Compared with `Cc1ccc(S(=O)(=O)NC(C(=O)N2CCOCCOCCOCCOCC2)c2ccccc2)cc1` (centres unmarked), `O=C(Cc1ccccc1)N1CCN(S(=O)(=O)c2cccc([N+](=O)[O-])c2)CC1` is lower in “hERG current change (%, negative = inhibition) at 1uM” value: 2.76% for the first, -5.66% for the second.

First: Cc1ccoc1C(=O)N1CCCCC1C(=O)O (centres unmarked)
Second: Cc1cccc(OCc2nc(C#N)c(N3CCCC3)o2)c1
The “hERG current change (%, negative = inhibition) at 1uM” value of the first is higher: 12.4% for the first, 11.8% for the second.

First: CCN(CC)C(=O)c1sc(NC(=O)c2c(OC)cccc2OC)c(C#N)c1C
Second: COc1ccc(OCC(=O)Nc2sc3c(c2C(=O)NCC2CCCO2)CCC3)cc1 (centres unmarked)
The “hERG current change (%, negative = inhibition) at 1uM” value of the first is lower: 2.18% for the first, 8.63% for the second.

Compared with `O=c1[nH]nnc2c1sc1nc(N3CCOCC3)c3c(c12)CCCC3`, `COC(=O)c1ccc2c(c1)NC(=O)C(N1CCOCC1)S2` (centres unmarked) is lower in “hERG current change (%, negative = inhibition) at 1uM” value: 1.15% for the first, -8.8% for the second.

Going from `Nc1cccc(NC(=O)c2cccs2)c1` to `Cc1ccc(C(=O)OCC(=O)c2ccc[nH]2)s1`, the “hERG current change (%, negative = inhibition) at 1uM” value rises from 4.63% to 5.27%.

Going from `CC1Cc2cc(/C(O)=C3/C(=O)C(=O)N(Cc4ccncc4)C3c3ccc(N(C)C)cc3)ccc2O1` (centres unmarked) to `CC(=O)O.O=S(=O)(CCc1ccncc1)C1Cc2cccc3cccc1c23` (centres unmarked), the “hERG current change (%, negative = inhibition) at 1uM” value falls from 13.2% to -5.03%.

Going from `Cc1ccc(S(=O)(=O)/N=C2\C=C(Nc3cccc(C(=O)O)c3)C(=O)c3ccccc32)c(C)c1` to `CC(C)C(=O)Nc1ccc(S(=O)(=O)N2CC3CC(C2)c2cccc(=O)n2C3)cc1` (centres unmarked), the “hERG current change (%, negative = inhibition) at 1uM” value falls from 6.01% to 3.49%.

Going from `O=C(Nc1ccccc1Cl)c1c(F)c(F)c(F)c(F)c1F` to `Cn1c(SCc2ccccc2Cl)nc(C(F)(F)F)cc1=O`, the “hERG current change (%, negative = inhibition) at 1uM” value rises from -1.65% to 6.63%.

Going from `C(=N\N1CCN(c2ccccn2)CC1)/c1ccco1` to `CCOC(=O)N1CCN(c2c(N3CCN(c4ccccn4)CC3)c(=O)c2=O)CC1`, the “hERG current change (%, negative = inhibition) at 1uM” value falls from 10.3% to 0.525%.

Going from `O=C(O)c1cc2n(n1)CCN(Cc1ccccc1Cl)C2=O` to `O=C(O)C1SCCN1S(=O)(=O)c1ccc2ccccc2c1` (centres unmarked), the “hERG current change (%, negative = inhibition) at 1uM” value falls from 12.2% to 11.5%.

Going from `Cc1oc2cc3oc(=O)c(CCC(=O)NCCN4CCOCC4)c(C)c3cc2c1C` to `Cc1coc2c1c(C)cc1oc(=O)c(CC(=O)N[C@@H](C)C(=O)O)c(C)c12`, the “hERG current change (%, negative = inhibition) at 1uM” value rises from 6.83% to 11.6%.

Compared with `O=C(NCCN1C(=O)S/C(=C\c2ccc(Cl)c(Cl)c2)C1=O)C1COc2ccccc2O1` (centres unmarked), `CCC1=NN2C(=N)/C(=C\c3ccc(OCCOc4ccccc4)c(OC)c3)C(=O)N=C2S1` is higher in “hERG current change (%, negative = inhibition) at 1uM” value: -9.85% for the first, 13% for the second.

Going from `CC(Oc1ccc(Cl)cc1Cl)C(=O)N/N=C1\CCCc2ccccc21` (centres unmarked) to `COC(CNC(=O)c1ccc(N2CCc3ccccc32)c([N+](=O)[O-])c1)OC`, the “hERG current change (%, negative = inhibition) at 1uM” value falls from 7.93% to 4.03%.

First: CC(C)[C@@H](C(=O)NC1CCN(Cc2ccccc2)CC1)N1C(=O)N2CCc3c([nH]c4ccccc34)[C@@]2(C)C1=O
Second: COc1ccc2[nH]c(=O)c(CN(CC3CCCO3)S(=O)(=O)c3ccccc3)cc2c1 (centres unmarked)
The “hERG current change (%, negative = inhibition) at 1uM” value of the first is lower: -4.75% for the first, 8.06% for the second.

Compared with `NC(=O)NC(=O)COC(=O)/C=C/c1cccs1`, `CCCN(CCC)C(=O)/C=C/c1cccc([N+](=O)[O-])c1` is lower in “hERG current change (%, negative = inhibition) at 1uM” value: 8.64% for the first, 4.04% for the second.

Compared with `O=Nc1c(O)[nH]c2ccc(F)cc12`, `Cc1cc(-n2c(C)cc(C(=O)COc3cc(F)ccc3[N+](=O)[O-])c2C)no1` is higher in “hERG current change (%, negative = inhibition) at 1uM” value: 10.7% for the first, 11.7% for the second.

First: CC(=O)Nc1ccc(C2=NNC(=NCC3CCCO3)SC2)cc1 (centres unmarked)
Second: COc1ccc(S(=O)(=O)NCC2CCCN(C(=O)c3cccnc3)C2)cc1 (centres unmarked)
The “hERG current change (%, negative = inhibition) at 1uM” value of the first is higher: 13.5% for the first, 11.3% for the second.

Compared with `Cc1cc(CNC(=O)c2ccc3oc(C(C)C)nc3c2)nn1C`, `Cc1ccnc(NCc2cc(C)ccc2O)c1` is higher in “hERG current change (%, negative = inhibition) at 1uM” value: 7.41% for the first, 21.6% for the second.

Compared with `Nc1n[nH]c(C2CC2)c1N=Nc1ccc(Cl)c(Cl)c1`, `COc1cc(/C=C/C(=O)c2ccc3c(c2)OCCO3)cc(Br)c1OCC(=O)N(C)C` is higher in “hERG current change (%, negative = inhibition) at 1uM” value: 10.6% for the first, 13.9% for the second.

Going from `COc1cc(OC)cc(-c2nnc(SCC(=O)N3CCCCC3)o2)c1` to `CN(C)N(Cc1ccccc1)C(=O)C(O)(c1ccccc1)c1ccccc1`, the “hERG current change (%, negative = inhibition) at 1uM” value rises from -0.147% to 21%.
